Hit rate of the full screen: of about 410,000 compounds, about 5,000 (1.2%) were called active. Inconclusive means that the source gave no clear call. Such entries were picked first, then a sample of the others. Calls follow the shape of the dose curve; as a rule, active = well fitted inhibition curve with a large enough effect; inconclusive = small, poorly fitted or top-dose-only effect; inactive = no such curve, though single readings can be large or run the other way. A potency beside an inconclusive call is a rough fit, not a confirmed value.
experiment: qHTS for Inhibitors of TGF-b; settings: HepG2 CAGA-GFP TGF-b/SMAD3 reporter, GFP fluorescence, 18 h, TGF-beta stimulated, 500 pg/mL final; series mostly up to 46.1 µM; activity, negative = inhibition: at the top concentration; also: nearly all actives have a fitted effect of over 65% in size
Method in brief: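 Inhibition of TGF-beta-driven CAGA-GFP reporter expression in HEPG2 cells is measured by cellular GFP fluorescence after 18 h stimulation with 500 pg/mL recombinant TGF-beta in 1% FBS medium at 37 degrees C.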
% is scaled to controls: 0 for no effect and ±100 for the full control effect; potency is read from the fitted curve at half-maximal effect; tags tell the direction and shape of the fitted curve.

Compound	Potency	activity, negative = inhibition
O=C(NCc1ccco1)C1CCN(C(=O)c2cc3sccc3n2Cc2ccc(Cl)cc2)CC1	inconclusive: 11.2 µM [inhibitor, partial curve, poor fit]	–
COc1ccc(C(Nc2ccccn2)c2ccc3ccc(C)nc3c2O)cc1C (stereo not drawn)	inconclusive: 11.2 µM [inhibitor, partial curve, poor fit]	–
COc1cnc(SCc2c(Cl)cccc2Cl)nc1Cl	–	inactive: -2.31%
COc1ccc(OCC(=O)NCCC2=CCCCC2)c([N+](=O)[O-])c1	–	inactive: -6.14%
O=[N+]([O-])c1ccc(O)c(/C=N/n2cnc3ccccc32)c1	inconclusive: 2.82 µM [inhibitor, full curve, poor fit]	–
CCOc1c(Br)cc(CNc2ccc3c(c2)OCCO3)cc1OC	inconclusive: 7.08 µM [inhibitor, partial curve, poor fit]	–
C=CCN([C@H](C(=O)OC)C(C)C)S(=O)(=O)CCNCc1ccccc1	inconclusive: 7.08 µM [inhibitor, partial curve, poor fit]	–
CC1CC1c1ccc(/C=C(\C#N)C(=O)Nc2cc(Cl)ccc2Cl)o1 (stereo not drawn)	–	inactive: 12.3%
CSc1ccc(S(=O)(=O)NCC(=O)OC(C)C(=O)NCc2ccccc2)cc1[N+](=O)[O-] (stereo not drawn)	inconclusive: 35.5 µM [inhibitor, single point]	–
O=C(Nc1ccc2c(c1)CCCN2C(=O)c1ccco1)c1cc([N+](=O)[O-])ccc1Cl	–	inactive: 15.2%
O=C(O)CCCNc1c(C(=O)Nc2ccc(Cl)cc2)cc([N+](=O)[O-])cc1[N+](=O)[O-]	inconclusive: 31.6 µM [inhibitor, single point]	–
O=C(Nc1cccc(S(=O)(=O)NC2=NCCC2)c1)c1ccccc1F	inconclusive: 15.8 µM [inhibitor, single point]	–
Cc1ccc(-c2c(C3C4C=CCC(C)C4C(=O)N3Cc3ccccc3)ccc3ccccc23)cc1 (stereo not drawn)	–	inactive: -35.3%
Cc1cccc(N(C(=O)c2nsc(Cl)c2Cl)C(C(=O)NC2CCCC2)c2ccc(O)cc2)c1C (stereo not drawn)	–	inactive: 0%
CCc1noc(C)c1C(=O)Nc1sc(C(=O)N(C)C)c(C)c1C#N	–	inactive: -6.82%
CCOC(=O)Cn1nc(C)c(NC(=O)c2ccc(Cl)c([N+](=O)[O-])c2)c1C	–	inactive: -7.4%
CCN(CC(=O)Nc1ccc(OC)cc1)C(=O)CCc1nc2ccccc2c(=O)[nH]1	inconclusive: 3.16 µM [inhibitor, single point]	–
CCOC(=O)N1CCC(NC(=O)c2cc(C(=O)NCc3ccc(F)cc3)ccc2CO)CC1	–	inactive: -3.29%
Cc1ccc(NC(=O)C2CCN(S(=O)(=O)c3cccc4nsnc34)CC2)cc1F	inconclusive: 6.31 µM [inhibitor, single point]	–
O=C(Nc1cccc(-c2nc3cc(Cl)ccc3o2)c1)C1CCCO1 (stereo not drawn)	inconclusive: 35.5 µM [inhibitor, partial curve, poor fit]	–
Cn1c(=O)c2c(nc(N3CCC(C(N)=O)CC3)n2CCSc2nc3ccccc3s2)n(C)c1=O	–	inactive: -47.1%
Cc1noc(C)c1S(=O)(=O)N(CC(=O)Nc1ccc(F)cc1F)c1ccc(C(C)C)cc1	inconclusive: 25.1 µM [inhibitor, single point]	–

Compound	Potency	activity, negative = inhibition
COC(=O)c1c(C)[nH]c(C(=O)OCc2ccc(F)cc2)c1C	inconclusive: 35.5 µM [inhibitor, single point]	–
COc1ccc(Cn2ccc3nc(C)c(C(=O)Nc4cccc(SC)c4)cc3c2=O)cc1	inconclusive: 28.2 µM [inhibitor, partial curve, poor fit]	–
Cc1ccc(OCc2nc3c4c(ncn3n2)-c2ccccc2CC42CCCC2)cc1	inconclusive: 35.5 µM [inhibitor, partial curve, poor fit]	–
COc1ccc(C)cc1NC(=O)c1ccc(CN2CCN(c3ccccc3)CC2)cc1	–	inactive: -2.8%
COc1ccc(NC(=S)NC(NC(=O)C(C)C)C(Cl)(Cl)Cl)c([N+](=O)[O-])c1 (stereo not drawn)	–	inactive: -13.6%
COc1cc(/C=C/c2sc3ccccc3[n+]2CCCS(=O)(=O)[O-])ccc1O	inconclusive: 6.31 µM [inhibitor, single point]	–
COc1ccc(C(CNS(=O)(=O)c2ccc(NC(C)=O)c(OC)c2)N2CCCC2)cc1 (stereo not drawn)	–	inactive: -1.63%
CCCCCCCNC(=O)C1(CC2CC(c3ccc(Cl)cc3)=NO2)CCN(C(=O)C2(C)CC2)CC1 (stereo not drawn)	inconclusive: 22.4 µM [inhibitor, single point]	–
Cc1nn(C)c(Cl)c1NC(=O)OCc1ccc(Cl)cc1Cl	inconclusive: 0.501 µM [inhibitor, full curve]	–
CC(/C=C/C=C/c1ccccc1)=N\NC(=O)c1cccnc1	–	inactive: 14.9%
CS(=O)(=O)N1CCc2cc(S(=O)(=O)Nc3ccc4c(c3)OCCO4)ccc21	inconclusive: 11.2 µM [inhibitor, partial curve, poor fit]	–
C=C(C(=O)c1ccccc1)C(C(=C)C(=O)c1ccccc1)c1ccc(OC)cc1	inconclusive: 2.82 µM [inhibitor, single point]	–
Cc1cnnc2ccccc12	–	inactive: -15.9%
CC(C)=CCOc1c2ccoc2c(OCC=C(C)C)c2oc(=O)ccc12	inconclusive: 35.5 µM [inhibitor, single point]	–
Cn1cnc2c1c(=O)n(Cc1c(Cl)cccc1Cl)c(=O)n2C	inconclusive: 35.5 µM [inhibitor, single point]	–
CC1=NN(c2cccc(Cl)c2)C(=O)C12CC(C)=C(C)CS2 (stereo not drawn)	inconclusive: 35.5 µM [inhibitor, partial curve, poor fit]	–
COc1cc2c(cc1OC)-c1nnc(-c3cccs3)n1C1(CCCC1)C2	–	inactive: -4.29%
CC(=O)c1ccc(O)c(CC=C(C)C)c1O	–	inactive: 6.88%
Cc1nn(C)c(Oc2ccc(Cl)cc2)c1C=O	inconclusive: 20 µM [inhibitor, single point]	–
CCCCOc1ccc(Cl)cc1Nc1nc(NCCO)nc(N2CCCC2)n1	inconclusive: 4.47 µM [inhibitor, full curve, poor fit]	–
CCN(CCNC(=O)C1CCN(Cc2nc(-c3ccc(Cl)cc3)oc2C)CC1)c1ccccc1	inconclusive: 25.1 µM [inhibitor, single point]	–

From PubChem BioAssay AID588855 (National Center for Advancing Translational Sciences (NCATS), 2011)
